Values marked as one replicate rest on one cluster of the flow cell; about a third of the high ones do not repeat.
These sequences were tested on ATP (assay: switch fluorescence ratio, 500 uM ATP over buffer (Cy3 cluster intensity, sum of 5 cycles each) (fold (ratio)); higher = stronger signal-on switching upon ATP binding; sequences stand for … in TCGTCGGCAGCGTCAGATGTGTATAAGAGACAGTTTTTTTTTTTTTTTTTTTTTTTTT…TC). Settings: aptamer strand: ATP DNA aptamer (quencher-CACCTGGGGGAGTATTGCGGAGGAAGG + anchor), 100 nM annealed; ATP concentration: 500 uM; one replicate.
Summary of the method: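 Imaging in selection buffer was followed by imaging after 15 min with 500 uM ATP at 22 °C, for Cy3-labelled switching-strand clusters annealed to 100 nM quencher-labelled ATP aptamer on a modified Illumina MiSeq flow-cell. Five of these buffer/ATP cycles ran, separated by NaOH stripping and re-annealing. The fluorescence ratio per cluster is summed target-cycle over summed buffer-cycle Cy3 intensity, averaged per switch-domain sequence; clusters outside 100-1000 RFU were removed.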
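Note: ATP exposure 15 min at 22 °C before imaging.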

| Sequence | switch fluorescence ratio |
| --- | --- |
| TGGCATCTT | 1.01 |
| TGGCATGTGG | 0.986 |
| TGGCATTTT | 1.04 |
| TGGCCAACAT | 0.984 |
| TGGCCCGGCC | 0.998 |
| TGGCCTATGA | 0.939 |
| TGGCCTTCGC | 1.13 |
| TGGCCTTTCC | 1.69 |
| TGGCGACAAG | 1.03 |
| TGGCGACGCG | 1 |
| TGGCGATCAG | 1.03 |
| TGGCGCATCG | 0.995 |
| TGGCGCATGA | 1.01 |
| TGGCGCCAAG | 0.997 |
| TGGCGCCAGT | 0.987 |
| TGGCGCGGGG | 0.976 |
| TGGCGGAGAG | 0.97 |
| TGGCGGCGGC | 1.02 |
| TGGCGGCTAC | 1.09 |
| TGGCGGTTTC | 1.14 |
| TGGCGTGCCG | 0.961 |
| TGGCGTTG | 0.961 |
| TGGCGTTGAG | 0.992 |
| TGGCTCTTTT | 0.953 |
| TGGCTGATGC | 0.971 |
| TGGCTGGGCA | 0.975 |

| Sequence | switch fluorescence ratio |
| --- | --- |
| TGGCTTGAGG | 0.985 |
| TGGCTTGTCC | 1.15 |
| TGGGAACATC | 1.01 |
| TGGGAAGTAG | 1.02 |
| TGGGAATCTG | 0.971 |
| TGGGAGACAG | 0.964 |
| TGGGAGGTAA | 1.17 |
| TGGGATAGCT | 0.989 |
| TGGGCACATG | 1.02 |
| TGGGCCAACT | 0.973 |
| TGGGCCAGTA | 0.928 |
| TGGGCCATTT | 0.978 |
| TGGGCCCACA | 0.954 |
| TGGGCCCCCT | 1.01 |
| TGGGCCCTGG | 1.01 |
| TGGGCGAGCG | 1.04 |
| TGGGCGCCGC | 0.976 |
| TGGGCGGAAT | 1.08 |
| TGGGCGGTTT | 1.01 |
| TGGGCTATGG | 1.03 |
| TGGGCTGCAG | 1.03 |
| TGGGCTGGGT | 1.01 |
| TGGGCTTCTA | 1.03 |
| TGGGGAAGAT | 0.958 |
| TGGGGATAGA | 0.994 |
| TGGGGCACAC | 1.03 |

| Sequence | switch fluorescence ratio |
| --- | --- |
| TGGGGCCAGG | 1.06 |
| TGGGGGATAA | 1.02 |
| TGGGGGCAT | 0.979 |
| TGGGGTCCG | 1.01 |
| TGGGGTCCTC | 0.982 |
| TGGGGTCGAG | 0.995 |
| TGGGGTTAAC | 0.981 |
| TGGGTACTTG | 1.01 |
| TGGGTATAAG | 0.993 |
| TGGGTCATGT | 0.977 |
| TGGGTGATC | 1 |
| TGGGTGTCT | 0.978 |
| TGGGTTGCAG | 1 |
| TGGGTTGCGA | 0.982 |
| TGGTAAACC | 1.08 |
| TGGTAACGGA | 0.961 |
| TGGTACAGGC | 1.05 |
| TGGTACGACC | 1.14 |
| TGGTAGAGGC | 0.999 |
| TGGTAGCGTG | 0.984 |
| TGGTAGGCAG | 0.979 |
| TGGTAGGTTA | 1.02 |
| TGGTAGTCGC | 0.957 |
| TGGTATACTT | 0.971 |
| TGGTATGAGC | 1.04 |
| TGGTCAACGG | 0.983 |

| Sequence | switch fluorescence ratio |
| --- | --- |
| TGGTCACTGT | 0.993 |
| TGGTCCGGAT | 0.993 |
| TGGTCGTGAA | 0.987 |
| TGGTCTTGAC | 1.01 |
| TGGTGAAGGT | 0.971 |
| TGGTGAGGCG | 1.02 |
| TGGTGATCTT | 0.991 |
| TGGTGATTCA | 1.01 |
| TGGTGCTGCT | 0.993 |
| TGGTGGAAGA | 0.991 |
| TGGTGGACAT | 0.985 |
| TGGTGGATAG | 1.05 |
| TGGTGGGTTA | 1.01 |
| TGGTGGTAGA | 0.989 |
| TGGTGTAGCG | 1 |
| TGGTGTAGGG | 1.1 |
| TGGTGTGGCA | 0.937 |
| TGGTGTTATA | 1.01 |
| TGGTTAATTA | 1.06 |
| TGGTTAGGA | 0.981 |
| TGGTTATCCG | 0.973 |
| TGGTTGCCGG | 1.03 |
| TGGTTTAGAT | 0.96 |
| TGGTTTGAAG | 1.03 |
| TGGTTTTGAG | 1.02 |
| TGGTTTTGCT | 0.966 |

| Sequence | switch fluorescence ratio |
| --- | --- |
| TGGTTTTGTC | 1.03 |
| TGTAAAAATA | 0.954 |
| TGTAAACGAT | 1.19 |
| TGTAAACTCG | 0.956 |
| TGTAAATCTA | 0.989 |
| TGTAAATGCT | 0.983 |
| TGTAACATGT | 0.997 |
| TGTAACGGGT | 1.02 |
| TGTAAGTGGG | 0.991 |
| TGTAATAGAT | 0.998 |
| TGTAATTTTT | 1.02 |
| TGTACAAACA | 1.02 |
| TGTACACGTG | 1.06 |
| TGTACCCTGT | 1.04 |
| TGTACGCTAA | 4.25 |
| TGTACGCTCC | 1.28 |
| TGTACGTGGT | 1.01 |
| TGTACGTTA | 1.25 |
| TGTAGATGGT | 0.976 |
| TGTAGCTG | 1.07 |
| TGTAGGAGGC | 0.964 |
| TGTAGGGCGG | 1.01 |
| TGTAGGTACT | 1.08 |
| TGTAGTACGG | 0.956 |
| TGTAGTAGTG | 0.957 |
| TGTAGTATGC | 1.02 |

| Sequence | switch fluorescence ratio |
| --- | --- |
| TGTATAAATA | 0.975 |
| TGTATAAGGG | 0.999 |
| TGTATAGCGG | 1.02 |
| TGTATAGTTG | 0.985 |
| TGTATATCTC | 0.94 |
| TGTATATGAA | 1.01 |
| TGTATCGTAG | 0.932 |
| TGTATGAACG | 1.03 |
| TGTATGATTG | 0.957 |
| TGTATGGG | 1.01 |
| TGTATGTAGA | 0.973 |
| TGTATTAAGC | 0.982 |
| TGTATTAGGT | 1 |
| TGTATTCTAT | 0.999 |
| TGTATTTTAT | 1.08 |
| TGTCAAATCT | 0.998 |
| TGTCACCGG | 1.04 |
| TGTCACGGGG | 0.949 |
| TGTCAGACCT | 1.08 |
| TGTCAGATCT | 0.962 |
| TGTCAGCGGC | 1.04 |
| TGTCAGGCGG | 0.954 |
| TGTCCAGCGG | 1.03 |
| TGTCCCCC | 1.11 |
| TGTCCGATTT | 0.956 |
| TGTCCTTGTC | 0.986 |

| Sequence | switch fluorescence ratio |
| --- | --- |
| TGTCGAATAT | 0.94 |
| TGTCGACAAA | 1.11 |
| TGTCGCACAC | 2.22 |
| TGTCGCCCCG | 1.05 |
| TGTCGGAAGC | 0.96 |
| TGTCGGACGT | 1.01 |
| TGTCGTATGC | 1.06 |
| TGTCGTCCAT | 0.968 |
| TGTCGTCCGT | 0.972 |
| TGTCTACCAA | 1.03 |
| TGTCTACCGG | 1.05 |
| TGTCTGTGC | 1 |
| TGTCTGTGTG | 0.989 |
| TGTCTTACAA | 1.03 |
| TGTCTTACTA | 1.02 |
| TGTCTTAGCA | 1.01 |
| TGTGAACGGT | 0.987 |
| TGTGACACAA | 0.964 |
| TGTGACACTG | 1.01 |
| TGTGACCAGA | 1 |
| TGTGACCTTA | 1.02 |
| TGTGAGAGAG | 0.971 |
| TGTGATCGCT | 0.968 |
| TGTGATGATC | 1 |
| TGTGATTTT | 0.964 |
| TGTGCCCACA | 1 |

| Sequence | switch fluorescence ratio |
| --- | --- |
| TGTGCTAAG | 1.01 |
| TGTGCTCG | 1.01 |
| TGTGGAGCAA | 3.76 |
| TGTGGATCCG | 0.994 |
| TGTGGATTGG | 0.974 |
| TGTGGCAGCC | 0.984 |
| TGTGGGAG | 0.973 |
| TGTGGGGAT | 0.995 |
| TGTGGGGCGT | 1.11 |
| TGTGGTACAT | 1 |
| TGTGTAGGCC | 0.999 |
| TGTGTCCGTA | 0.909 |
| TGTGTCTTAG | 0.936 |
| TGTGTGTAAT | 1.02 |
| TGTGTGTAGG | 1 |
| TGTGTGTGT | 1 |
| TGTGTTATAT | 1.02 |
| TGTGTTGAAT | 0.959 |
| TGTTAACGTG | 0.961 |
